# Data published in paper PMC4336329 (PLoS ONE, 2015).
# The whole screen tested about 310,000 compounds, of which about 14,000 (4.5%) showed an effect of 50% or more. Effects have a minus sign here. The list shows a part of the results.
# Target: human ether-à-go-go-related gene (hERG) potassium channel (human, UniProt Q12809)
# Assay: primary screen, population patch clamp on CHO cells stably expressing hERG
# 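Note: peak tail current of the secondary pulse compared with the same well before compound.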
# human ether-à-go-go-related gene (hERG) potassium channel, sequence (Q12809 whole entry, looked up): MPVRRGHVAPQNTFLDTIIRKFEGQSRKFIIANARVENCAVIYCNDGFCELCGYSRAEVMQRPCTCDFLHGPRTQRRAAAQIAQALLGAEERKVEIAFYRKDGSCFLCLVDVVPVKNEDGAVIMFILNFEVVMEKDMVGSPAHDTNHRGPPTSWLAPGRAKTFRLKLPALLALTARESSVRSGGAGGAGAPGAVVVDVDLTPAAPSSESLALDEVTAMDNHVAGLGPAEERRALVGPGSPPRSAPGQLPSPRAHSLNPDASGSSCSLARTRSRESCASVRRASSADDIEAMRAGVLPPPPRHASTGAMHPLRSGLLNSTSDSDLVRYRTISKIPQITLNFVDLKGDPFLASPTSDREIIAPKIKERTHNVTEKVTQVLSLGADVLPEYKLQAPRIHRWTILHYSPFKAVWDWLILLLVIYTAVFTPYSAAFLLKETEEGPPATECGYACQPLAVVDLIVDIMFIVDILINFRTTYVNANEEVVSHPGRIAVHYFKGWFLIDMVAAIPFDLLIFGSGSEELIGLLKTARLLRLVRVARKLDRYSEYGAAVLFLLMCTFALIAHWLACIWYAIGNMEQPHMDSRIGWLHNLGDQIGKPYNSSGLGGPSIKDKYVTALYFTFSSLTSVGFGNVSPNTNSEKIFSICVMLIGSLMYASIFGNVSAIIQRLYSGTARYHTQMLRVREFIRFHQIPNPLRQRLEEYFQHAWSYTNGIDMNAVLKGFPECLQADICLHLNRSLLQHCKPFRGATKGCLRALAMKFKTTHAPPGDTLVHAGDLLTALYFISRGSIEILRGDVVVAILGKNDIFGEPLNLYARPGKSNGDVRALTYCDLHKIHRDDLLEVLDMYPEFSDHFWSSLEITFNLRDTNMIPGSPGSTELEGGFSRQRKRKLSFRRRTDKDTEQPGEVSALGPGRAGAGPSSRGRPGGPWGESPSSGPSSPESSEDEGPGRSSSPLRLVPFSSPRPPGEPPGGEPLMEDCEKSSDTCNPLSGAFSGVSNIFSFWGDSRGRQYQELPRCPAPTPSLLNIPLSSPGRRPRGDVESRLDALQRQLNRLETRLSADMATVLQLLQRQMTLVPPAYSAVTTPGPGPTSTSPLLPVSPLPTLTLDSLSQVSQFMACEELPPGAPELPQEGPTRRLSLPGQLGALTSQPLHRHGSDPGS
row,Compound,"hERG current change (%, negative = inhibition) at 10uM"
1,Cc1ccc(/C=N/NC(=O)c2cccnc2)s1,10.2%
2,O=C(NCc1ccccc1)C12CC3CC(CC(C3)C1)C2,4.58%
3,COc1cc(NC(=O)c2cc(-c3ccco3)on2)c(OC)cc1Cl,-22%
4,Cc1cc(N)c(C)c([N+](=O)[O-])c1C,1.69%
5,CCOC(=O)c1oc2ccccc2c1CN1CC(C)OC(C)C1 (stereo not drawn),-0.576%
6,O=C(C1CCCC1)N1CCC(CC2CC(c3ccc(Cl)cc3)=NO2)(C(=O)NCC2CCCCC2)CC1 (stereo not drawn),-24.1%
7,CCN(CC)c1nc(Nc2ccc(Cl)cc2)nc(OCC#N)n1,12.8%
8,COc1ccccc1CN1CC(C(=O)NCc2cccnc2)CC1=O (stereo not drawn),-1.45%
9,Cc1cc(=O)oc2c(C)c(OCC(=O)N3CCN(c4ccccc4)CC3)ccc12,-24.8%
10,Cc1ccccc1OCC(=O)N/N=C/c1ccncc1,-7.48%
11,O=C(OCC(=O)N1CCCC1)c1ccccc1O,24.2%
12,CC(C)(CO)NCc1cccs1.Cl,11.3%
13,Cc1onc(-c2ccccc2Cl)c1C(=O)OCN1C(=O)c2ccccc2C1=O,-7.31%
14,COc1ccc(N2CCN(c3cc(C)c4ccccc4n3)CC2)cc1,3.95%
15,CC(=O)Nc1ccc(-n2c(C)ccc2C)cc1,16.3%
16,CCOC(=O)C(CC)n1nc(C)n2c(cc3occc32)c1=O (stereo not drawn),13.9%
17,CCC1CCCCN1c1nc(-c2ccncc2)nc2ccccc12 (stereo not drawn),-42.5%
18,CC1(C)Cc2c(sc3c2c(=N)n(Cc2ccco2)c(=O)n3Cc2ccc(F)cc2)CO1,-19.3%
19,CC1(C)Cc2c(sc3c2c(=N)n(Cc2ccco2)c(=O)n3CC(=O)Nc2ccc(Cl)cc2)CO1,-6.02%
20,Clc1ccc(COn2nnc3ccccc32)c(Cl)c1,2.93%
21,CCN(CC)CC.CCN1C(=O)/C(=C2/Sc3ccccc3N2CCCS(=O)(=O)O)SC1=S,4.01%
22,FC(F)Sc1ccc(NC(=S)NC2CCCC2)cc1,0.442%
23,CCOc1ccc(OCc2ccc(C(=O)NCc3cccnc3)o2)cc1,-4.89%

row,Compound,"hERG current change (%, negative = inhibition) at 10uM"
1,CCOC(=O)CC1COCCN1C(=O)CCc1nnc(-c2ccsc2)o1 (stereo not drawn),3.96%
2,Cc1ccc(Nc2cc(C)nc3c(C)cccc23)cc1,-53.3%
3,C=CCn1c(SCC(N)=O)nc2sc3c(c2c1=O)CCC3,-2.38%
4,CC1Sc2ccc(S(=O)(=O)CCC(=O)NC3CCCCC3C)cc2NC1=O (stereo not drawn),-6.87%
5,O=C(CS(=O)(=O)c1cn(Cc2ccc(Cl)cc2)c2ccccc12)N1CCOCC1,-28%
6,CCCN(CC(=O)Nc1ccccc1C)C(=O)c1cc(C)oc1C,3%
7,Cc1cc(NC(=O)Cn2cnc3c(nnn3-c3ccc(C)c(Cl)c3)c2=O)no1,2.29%
8,CCc1ccc2[nH]c(C(=O)Nc3ccc(C)c(F)c3)cc2c1,23.2%
9,Cc1cccc2c(N=Nc3ccc(S(=O)(=O)Nc4ccc(Cl)cc4)cc3[N+](=O)[O-])c(O)[nH]c12,31.8%
10,NC(=O)CS(=O)(=O)c1nc2ccccc2n1CC(=O)N1CCCCC1,4.29%
11,Cc1ccc(Nc2nc(N)nc(CN3CCN(c4ccccc4)CC3)n2)cc1Cl,-66.4%
12,S=C(Nc1cccc(Cl)c1)N1CCOCC1,-12.2%
13,N#Cc1c(-c2ccccc2)nc(SCC(=O)N2c3ccccc3Sc3ccccc32)[nH]c1=O,15.7%
14,Nn1c(SCC(=O)Nc2cccc(S(N)(=O)=O)c2)nnc1C1CC1,9.28%
15,CC1CCN(S(=O)(=O)c2ccc3c(c2)N(CC(=O)NCCN2C(C)CCCC2C)C(=O)CS3)CC1 (stereo not drawn),-52.7%
16,CCc1ccc(-n2c(SCc3cc(=O)n4cc(Br)ccc4n3)nc3[nH]ncc3c2=O)cc1,-51%
17,CC(C)(C)C(=O)NC(=S)N1CCOCC1,7.45%
18,O=C(O)CCC(=O)Nc1sc2c(c1C(=O)NC1CCCC1)CCCC2,5.76%
19,Cc1cccc(-c2noc(CCCOc3ccc(Cl)cc3Cl)n2)c1,3.05%
20,O=C(N/N=C/c1cccc([N+](=O)[O-])c1)c1nc2ccccc2c(=O)[nH]1,0.968%
21,COc1cccc(CC(=O)OCC(=O)N(C)CC(=O)Nc2ccc(Cl)c(C(F)(F)F)c2)c1,0.214%
22,CCOc1ccc(NC(=O)CSc2nnc(C(C)C)n2CC)cc1,9.17%
